Assay results as given in PubChem BioAssay AID493208 (National Center for Advancing Translational Sciences (NCATS), 2011).
About 340 (0.77%) of roughly 44,000 compounds were called active. Inconclusive results, whose numbers are uncertain, are shown with a selection of clear calls. Calls follow the shape of the dose curve; as a rule, active = well fitted inhibition curve with a large enough effect; inconclusive = small, poorly fitted or top-dose-only effect; inactive = flat fitted curve, though single readings scatter. Potencies of inconclusive entries are left out as doubtful fits.

Assay: Acumen qHTS Assay for Inhibitors of the mTORC1 Signaling Pathway in MEF (Tsc2-/-, p53-/-) Cells: Sytravon; also: nearly all actives have a fitted effect of over 50% in size
Settings: phospho-rpS6 immunofluorescence/PI, 24 h; series mostly up to 38.3 µM
Method in brief: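 Tsc2-/-, p53-/- MEFs (empty-vector stable line) in DMEM + 10% FBS were treated with compounds 24 h at 37 degree Celsius, fixed, and immunostained for phospho-rpS6 (Alexa-488) with propidium iodide counterstain. Laser-scanning cytometry gave % positive cells, normalized against 7.5 nM rapamycin and DMSO.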
Potency is read from the fitted curve at half-maximal effect; tags tell the direction and shape of the fitted curve.

| SMILES | Potency |
| --- | --- |
| Cc1ccc(C)c(-c2nnc(NC(=O)c3ccc4c(c3)OCCO4)o2)c1 | inactive |
| CC[C@@H](C)[C@@H](C(=O)Nc1ccc(C)cc1)N1Cc2ccccc2C1=O | inconclusive [falling, single point] |
| CCCCOc1cccc(NC(=O)c2cccc(C(=O)Nc3cccc(OCCCC)c3)c2)c1 | active: 7.36 µM |
| Cc1ccc(C)c(Nc2cc(C(=O)NCCCN(C)C3CCCCC3)c3ccccc3n2)c1 | inconclusive [falling, single point] |
| COc1cc(NC(=O)NCC2CCN(Cc3ccc(C)cc3)CC2)cc(OC)c1OC | inconclusive [falling, single point] |
| Cc1ccc(CNC(=O)c2cnc3c(-c4ccccc4)c(C)nn3c2C)o1 | inconclusive [falling, full curve, poor fit] |
| COc1ccc(NC(=O)CCNS(=O)(=O)c2ccc3c(c2)CCN3C(=O)C2CC2)cc1Cl | inactive |
| CCC(C)NC(=O)c1ccc2c(c1)N=C(C)c1cc(C)ccc1S2 (stereo not given) | inconclusive [falling, partial curve] |
| COc1ccc(Cl)cc1N(C)C(=O)Cc1noc2ccc(C)cc12 | inconclusive [falling, partial curve] |
| Cc1cccc(Cc2c(C)nc3nc(SCC(=O)NCc4ccc(F)cc4)nn3c2C)c1 | inconclusive [falling, single point] |
| O=C(NC1CCCCCC1)C1c2ccccc2C(=O)N1Cc1ccccc1Cl (stereo not given) | inconclusive [activator, partial curve, poor fit] |
| CCc1ccc(NC(=O)C2CCCN(S(=O)(=O)c3c(C)noc3/C=C/N(C)C)C2)cc1 (stereo not given) | inconclusive [falling, partial curve, poor fit] |
| COc1ccccc1N1CCN(C(=O)c2cnc(N3CCCCC3)c3ccccc23)CC1 | inconclusive [falling, partial curve] |
| COc1ccc(/C=C/C(=O)Nc2ccc(Cl)c(Cl)c2)cc1 | inactive |
| O=C(COc1ccc(F)cc1)NCCc1nc2ccccc2[nH]1 | inactive |
| Cc1ccc(Cl)cc1N1CCN(C(=O)c2ccc3nc(N4CCC(C)CC4)sc3c2)CC1 | inactive |
| CCOC(=O)c1ccccc1NC(=O)NCc1cccn1Cc1ccc(F)cc1 | inconclusive [falling, single point] |
| O=C(CCS(=O)(=O)c1nc(-c2cccs2)cc(C(F)(F)F)n1)Nc1ccc(F)c(Cl)c1 | inactive |
| CCOc1ccc(-c2cc(C(=O)NCCc3ccccc3)c3c(-c4ccc(C)cc4)[nH]nc3n2)cc1 | inconclusive [falling, single point] |
| CCN(CC)c1ccc(NS(=O)(=O)c2ccc(-c3coc(C)n3)cc2)c(C)c1 | inconclusive [falling, partial curve, poor fit] |
| Cc1noc2ncnc(N3CCN(c4ccccc4F)CC3)c12 | inconclusive [falling, single point] |
| Cc1ccc(Cl)cc1NC(=O)Cn1cc2c(n1)CCCCC2 | inconclusive [falling, partial curve, poor fit] |

| SMILES | Potency |
| --- | --- |
| CCCCNc1nc2c(c(=O)n(Cc3ccc(Cl)c(Cl)c3)c(=O)n2C)n1C | inconclusive [falling, partial curve, poor fit] |
| CCOC(=O)c1scc(-c2ccccc2)c1S(=O)(=O)N1CCN(c2ccccc2OC)CC1 | inconclusive [falling, partial curve, poor fit] |
| O=C(/C=C/c1cn(CC(O)CN2CCCCCC2)c2ccccc12)c1ccc(Br)cc1 (stereo not given) | inconclusive [falling, single point] |
| COc1cccc(NS(=O)(=O)c2ccc3c(c2)CCCN3C(=O)C2CCC2)c1 | inconclusive [falling, single point] |
| O=C(Nc1c(Cl)cccc1Cl)c1cc(-c2cccc(O)c2)on1 | inactive |
| COc1ccccc1Nc1nn2c(=O)c3ccc(C(=O)NC(C)c4ccccc4)cc3nc2s1 (stereo not given) | inactive |
| COc1ccc(/C=C/C(=O)Nc2ccc3nc(N4CCCCC4)cc(C)c3c2)cc1OC | inconclusive [falling, single point] |
| CCN(CC)S(=O)(=O)c1ccc2c(c1)N(CC(=O)Nc1c(C)cc(C)cc1C)C(=O)C1CCCN21 (stereo not given) | inconclusive [falling, partial curve, poor fit] |
| COc1ccccc1NC(=O)c1nc(SCc2ccc(F)cc2)ncc1Cl | inactive |
| COc1ccc(OC)c(NC(=O)c2sc3nc4c(cc3c2N)CCCCCC4)c1 | inconclusive [falling, single point] |
| Cc1cccc(N2CCN(c3ncnc4c3c(-c3ccccc3)cn4-c3ccccc3)CC2C)c1 (stereo not given) | inconclusive [falling, partial curve, poor fit] |
| COCCNC(=O)CSc1nnc(NC(=O)Nc2ccc(C)cc2)s1 | inactive |
| COc1ccc(CNC(=O)C(=O)NCC(c2cccnc2)N2CCN(c3ccccc3F)CC2)cc1 (stereo not given) | inactive |
| CC(=O)Nc1ccc(S(=O)(=O)Nc2ccc3c(c2)n(C)c(=O)n3C)c(C)c1 | inactive |
| Cc1cc(C)n(-c2nc3cc(Cl)c(Cl)cc3nc2Nc2c(C)cccc2C)n1 | inconclusive [falling, full curve, poor fit] |
| Cc1ccc(OC(C)C(=O)NCC2(N3CCOCC3)CCCCC2)cc1C (stereo not given) | inconclusive [falling, single point] |
| CCN(CCCNC(=O)c1cc2c(=O)[nH]c3ccc(C)cc3c2s1)Cc1ccccc1 | active: 18.5 µM |
| CCOC(=O)c1c(NC(=O)c2ccc(S(=O)(=O)N(C)C)cc2)sc2c1CCN(C)C2 | inconclusive [falling, single point] |
| CCc1ccc(Sc2cc(C(=O)NCCCN3CCCC(C)C3)c3ccccc3n2)cc1 (stereo not given) | inconclusive [falling, single point] |
| Cc1ccccc1CCNCc1c(C(=O)O)c(C)n(Cc2c(F)cccc2Cl)c1C | inactive |
| COc1ccc(CNc2oc(COc3cccc(C)c3)nc2C#N)cc1 | inconclusive [falling, single point] |
| COc1cc(Cl)c(C)cc1Nc1c2c(nc3ccccc13)CCC2 | inconclusive [falling, partial curve, poor fit] |

| SMILES | Potency |
| --- | --- |
| Cc1ccc(NC(=O)CSc2nc(-c3cccs3)cc(C(F)(F)F)n2)cc1C | inconclusive [falling, full curve] |
| Cc1nnc(SCC(=O)NCc2ccc(N(C)C)cc2)c2nn(-c3ccccc3)c(C)c12 | inactive |
| CCCN(C(=O)Cc1c(C(=O)O)[nH]c2ccc(Cl)cc12)c1ccc(OCC)cc1 | inconclusive [falling, full curve, poor fit] |
| COc1ccc(CCNc2ncnc3c2nnn3C)cc1 | inconclusive [falling, partial curve, poor fit] |
| CCOC(=O)c1cnc2c(Cl)cc(Cl)cc2c1Nc1ccccc1OC | inconclusive [falling, single point] |
| O=C(NCCCN1CCN(c2cccc(Cl)c2)CC1)c1cnn(-c2ccc(F)cc2)c1-n1cccc1 | inconclusive [falling, partial curve, poor fit] |
| CCOc1ccccc1NC(=O)Cn1c(=O)n(CCC(=O)NCc2ccc3c(c2)OCO3)c(=O)c2ccccc21 | inconclusive [falling, partial curve, poor fit] |
| Cc1cc(Cl)ccc1NC(=O)c1cccc(NC(=O)N2CCSc3ncccc32)c1 | inactive |
| CCOc1cc(CNc2ccc(O)cc2)cc(Cl)c1OCc1ccccc1 | inconclusive [falling, single point] |
| Cc1cccc(-c2cc(-c3ccccc3)nc(SCC(=O)Nc3ccccc3)c2C#N)c1 | inconclusive [falling, partial curve, poor fit] |
| COc1cc(-c2cc3n(C)c(C)c(CCC(=O)NC4CCCCC4)c(=O)n3n2)cc(OC)c1OC | inactive |
| O=C(CN1C(=O)C2(SCC(=O)N2c2ccc(F)c(F)c2)c2ccccc21)Nc1cccc(Cl)c1 (stereo not given) | inactive |
| COc1ccc(CNC(=O)C2CCN(C(=O)N3CCOc4ccc(Cl)cc43)CC2)cc1 | inconclusive [falling, partial curve, poor fit] |
| COc1ccc(NC(=O)CCCN2C(=O)CCn3nc(-c4cn(C)c5ccccc45)cc32)cc1 | inconclusive [falling, partial curve] |
| COc1ccc(CCNc2nc3c(c(=O)n(C)c(=O)n3C)n2Cc2ccc(F)cc2)cc1OC | inactive |
| CCN1C(=O)C(O)(c2c(C)[nH]c3ccccc23)c2ccccc21 (stereo not given) | inconclusive [falling, full curve] |
| O=C(NCc1ccccc1Cl)C1CCCN(c2nc3ccccc3n3cccc23)C1 (stereo not given) | inconclusive [falling, single point] |
| CC1=C(C(=O)Nc2ccc(C)cc2C)C(c2ccc(C(C)C)cc2)n2nc(C(F)(F)F)nc2N1 (stereo not given) | inconclusive [falling, single point] |
| CCCCNC(=O)CSc1c2c(nc3ccc(Cl)cc13)CCCC2 | inconclusive [falling, partial curve, poor fit] |
| COCCCNC(=O)c1c(C)nn(-c2ccc(F)cc2)c1-n1cccc1 | inactive |
| CCCOc1ccc(CC2C(=O)Nc3ccc(Br)cc32)cc1 (stereo not given) | inconclusive [falling, partial curve, poor fit] |
